Measured values published in PubChem BioAssay AID1347073 (National Center for Advancing Translational Sciences (NCATS), 2019).
About 200 (0.44%) of roughly 45,000 compounds were called active. Roughly 7% stayed inconclusive and do not appear here. Calls follow the shape of the dose curve; as a rule, active = well fitted activation curve with a large enough effect; inconclusive = small, poorly fitted or top-dose-only effect; inactive = no such curve, though single readings can be large or run the other way. This is one part of the list.

experiment: qHTS of TDP-43 Inhibitors: NCGC Sytravon Library Screen; conditions: yeast TDP-43 toxicity rescue, BacTiter-Glo growth, 24 h; series mostly up to 46.1 µM; growth rescue (activation): at the top concentration; also: 0% is about no effect; nearly all actives have a fitted effect of over 55% in size
How it was run: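 TDP-43-expressing yeast, pregrown in raffinose, seeded at OD600 0.02 in galactose medium with compound for 24 hr at 30 deg C. Growth read by BacTiter-Glo luminescence, so rescue of toxicity appears as activation.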

Row | Compound | growth rescue (activation)
1 | COc1ccccc1NC(=S)NCC1CCCO1 (centres undefined) | inactive: 6.75%
2 | CN1CCN(Cc2nc3ccccc3c(=O)n2Cc2nc(-c3ccc4ccccc4c3)cs2)CC1 | inactive: -15.6%
3 | COc1cc(C(=O)NCc2ncccc2C)ccc1OC1CCN(C(C)=O)CC1 | inactive: 4.45%
4 | Cc1cc2oc(=O)cc(CN3CCOCC3)c2cc1O | inactive: 17.4%
5 | Cc1cc([N+](=O)[O-])ccc1NC(=O)Nc1ccccc1F | inactive: 2.38%
6 | C=CCN1C(=O)/C(=C/C=C2/N(CC)c3ccc(S(=O)(=O)N(C)C)cc3N2CC)SC1=S | inactive: -14.4%
7 | COc1ccccc1/C=C\C(=O)NCC(=O)N/N=C(/C)c1cccc([N+](=O)[O-])c1 | inactive: 5.37%
8 | O=C(NC1CCCCCC1)c1cccc(S(=O)(=O)N2CCOCC2)c1 | inactive: 5.41%
9 | Cc1ccc(N=Cc2c(O)n(-c3nccs3)c(=O)c3ccccc23)c(C)c1 | inactive: 8.9%
10 | O=C(CSc1nncs1)NCCCc1ccccc1 | inactive: -1.7%
11 | CC(=O)Nc1ccc(NC(=O)C2CCCN2S(=O)(=O)c2cccc3nsnc23)cc1 (centres undefined) | inactive: 7.66%
12 | CC(C)NC(=O)C1(C)CCN1C(=O)c1c(F)cccc1F (centres undefined) | inactive: 10.4%
13 | COC(=O)c1ccccc1NC(=O)CSc1nc(C)cc(C)n1 | inactive: 5.98%
14 | Nc1nc(SCc2ccccc2)n[nH]1 | inactive: -2.05%
15 | CN(C)c1ccc(-c2nnn(CC(=O)Nc3ccc4c(c3)OCCO4)n2)cc1 | inactive: 10.4%
16 | Cc1cc(C)c(NC(=O)C[N+](C)(C)CC(O)COc2cccc3ccccc23)c(C)c1 (centres undefined) | inactive: 11.8%
17 | Cc1ccccc1C(=O)Nc1ccnn1C1CCN(CCCc2ccccc2)CC1 | inactive: 13.4%
18 | CCCCN1C(=O)C(=O)N(CC(=O)Nc2ccc(OC(F)(F)F)cc2)C1=O | inactive: 10.3%
19 | O=C(COc1ccc(S(=O)(=O)NC2CCCC2)cc1)N1CCCCC1 | inactive: 5.91%
20 | Cc1ccc(S(=O)(=O)N(Cc2n[nH]c(=S)n2-c2ccccc2)c2ccccc2)cc1 | inactive: 20.2%
21 | CCOc1ccccc1N1CCN(C(=O)COc2ccc3c(C)cc(=O)oc3c2)CC1 | inactive: 13.8%
22 | CCc1nc2c(OCc3ccc4c(c3)OCO4)cccn2c1N(C=O)Cc1ccc(OC)cc1 | inactive: 3.34%
23 | CCc1cccc(N(C(=O)c2csnn2)C(C(=O)NC2CCCC2)c2cccnc2)c1 (centres undefined) | inactive: 10.6%

Row | Compound | growth rescue (activation)
24 | COc1ccc(C(=O)Oc2ccc(C(=S)N3CCOCC3)cc2)cc1 | inactive: 37.4%
25 | CCCNC(=O)C1(C)CCN(Cc2csc(-c3ccc(Cl)cc3)n2)C1 (centres undefined) | inactive: 13%
26 | CCOc1cc(N2CCOCC2)c(OCC)cc1NC(=O)CSc1nnc(N)s1 | inactive: 14.9%
27 | C/C(=N\S(=O)(=O)c1ccc(C)cc1)Nc1cc(C(C)C)c(O)cc1C | inactive: 4.59%
28 | CCOC(=O)Cc1ccc2sc(-c3ccccc3)nc2c1 | inactive: 4.73%
29 | N#C/C(=C\c1c(N2CCC(C(N)=O)CC2)nc2ccccn2c1=O)S(=O)(=O)c1ccc(Cl)cc1 | inactive: 2.5%
30 | COc1ccc(NS(=O)(=O)c2ccc(C)c(NC(=O)NC3CCCCC3)c2)cc1 | inactive: -0.859%
31 | Cc1cc2oc(=O)cc(C)c2cc1NC(=O)CCl | inactive: -13.8%
32 | CCNC(=S)N1CCC(C(O)(c2ccccc2)c2ccccc2)CC1 | inactive: 7.77%
33 | Cc1ccc(C2(C)NC(=O)N(CC(=O)Nc3cc(S(=O)(=O)N4CCOCC4)ccc3C)C2=O)cc1 (centres undefined) | inactive: 11.5%
34 | COc1ccc(-c2nn(-c3ccccc3C)cc2CNC(C)Cn2cncn2)cc1F (centres undefined) | inactive: 0.549%
35 | COc1ccc(CCn2c(NN)nc3c2c(=O)[nH]c(=O)n3C)cc1 | inactive: 4.29%
36 | CN(C)S(=O)(=O)Oc1ccc(Cl)cc1C(=O)Nc1ccc(F)cc1F | inactive: 16%
37 | O=C(NC1CCOc2ccccc21)c1ccc(Cl)nc1 (centres undefined) | inactive: 12.4%
38 | Cc1ccc(CN2C(=O)C(F)(F)Oc3ccccc32)cc1 | inactive: 39.2%
39 | CC(=O)c1cccc(NC(=O)COC(=O)c2ccccn2)c1 | inactive: 13.3%
40 | O=C(CSc1nc2ccccc2c(=O)n1CCCN1CCOCC1)Nc1cccc(S(=O)(=O)N2CCCCCC2)c1 | inactive: -15.3%
41 | COc1ccc(/C=C2\C(=O)NC(=S)N2C(=O)c2ccc(C)cc2)cc1 | inactive: 2.21%
42 | O=C(COC(=O)c1cccnc1Cl)NC(=O)c1ccc(OC(F)F)cc1 | inactive: -12.4%
43 | COc1ccccc1OCC#CCn1ccnc1 | inactive: -13.3%
44 | COc1ccc(C(=O)NC(C)c2nnc(SCC(=O)NC3CCCC3)n2C)cc1 (centres undefined) | inactive: -22.1%
45 | O=C(CCN1C(=O)/C(=C/c2cccs2)SC1=S)NC1=NCCS1 | inactive: 8.61%
46 | CCCNC(=O)c1cc(C2CCCN(S(=O)(=O)c3ccccc3)C2)on1 (centres undefined) | inactive: -0.543%

Row | Compound | growth rescue (activation)
47 | CCCOc1ccc(C(=O)NC(=S)NCc2cccnc2)cc1 | inactive: 27.1%
48 | CN(C)CCN[C@H]1CCC2C3CC=C4C[C@@H](O)CC[C@]4(C)C3CC[C@@]21C (some centres undefined) | inactive: 11.7%
49 | O=C(Nc1ccc(Br)cn1)c1cccc(-c2cc3ccccc3oc2=O)c1 | inactive: -16.4%
50 | CCOc1ccccc1NC(=S)NCc1cccn1C | inactive: -4.04%
51 | CCC(C)NC(=O)Nc1ccc(Br)cc1 (centres undefined) | inactive: -6.35%
52 | CC1=CC(=C(C#N)c2nc3ccccc3s2)C=C(C)N1c1ccc(F)cc1 | inactive: 8.1%
53 | CC(NC(=O)c1ccccc1Br)c1nnc(SCC(=O)NC2CCCCC2)n1C (centres undefined) | inactive: 6.51%
54 | Cc1cccc(NC(=O)CN2CCC(C(=O)c3ccc4c(c3)OCCO4)CC2)c1 | inactive: -1.37%
55 | CCOCCn1c(=O)c2c(nc3n2CCCN3Cc2ccccc2)n(C)c1=O | inactive: 15.7%
56 | CC1(C(=O)NS(=O)(=O)c2ccc(F)cc2F)CCN1C(=O)CCc1ccc(Cl)cc1Cl (centres undefined) | inactive: -0.785%
57 | CC[n+]1ccccc1/C=C/Nc1ccccc1 | inactive: -0.821%
58 | O=C(COC(=O)c1ccccc1)NC1CCCCCC1 | inactive: -0.68%
59 | CCCC(=O)Nc1cc(-c2nnc3c4ccccc4c(C)nn23)ccc1C | inactive: 6.15%
60 | CCN(c1ccccc1)S(=O)(=O)c1nnc(NC(=O)C(C)C)s1 | inactive: -16.9%
61 | Cc1cc(/C=C(\C#N)C(=O)N2CCCCC2)cc(C)c1O | inactive: 13%
62 | CC1=C(C(=O)Nc2ccccc2)C(c2cccs2)NC(=O)N1 (centres undefined) | inactive: -5.61%
63 | COCCC1CCCCN1C(=O)c1cccc(OC2CCN(S(C)(=O)=O)CC2)c1 (centres undefined) | inactive: 11.8%
64 | O=C(CSc1nnc2ccccn12)NNC(=O)c1ccccc1F | inactive: -14%
65 | C=C(C)CNC(=S)N/N=C/c1ccc(NC(C)=O)cc1 | inactive: 3.24%
66 | CCN(Cc1nc(-c2ccccc2)no1)C(=O)c1ccc2c(c1)OCO2 | inactive: 21.2%
67 | COc1cc([N+](=O)[O-])cc2sc(NC(=O)C(C)(C)C)nc12 | inactive: 0.527%
68 | CC(C)Cn1cc(-c2cccc3nccn23)cn1 | inactive: 7.08%
69 | COc1ccc(S(=O)(=O)Nc2ccc(N3CCOCC3)cc2)cc1[N+](=O)[O-] | inactive: 7.1%
